# Measured values published in the supplement of paper PMC8728848.
# The other results are listed elsewhere or left out.
# B1: Na-CTL-1 (Necator americanus) (protein)
# chain: MQRSFLLLLVVLAGAWAVNTTIPLKLMGGFTPMKYQCVGRVSDIWADVLFLIESSDMITKSGFRQVIAFITATTKKMTIGQDEKQTRVGFITYGEEAKLIYDLDHWRSTEKLSDLVQKIPYVKSSGTNIAAAIALANKVFNSPTHRPNVPKVMVIVANGLKKGSQNPIPVATAFKDFGGIIITIEYTQYDNIQVPILKKIASEGYNIRSNDEDFSVRTLTNMLLQANCFCPDHYVPFRVNNPEFGCFVTAKIPSMWRDAAEMCRAVEEGKLVKVENEEKAAFIMKLVGPKKEAWIGLRYYGNKFQWTDGTKLNADDFNLWPEDIKELNGPHCVSMYQDQKDKKYYWRAGKCLEDMRYVCEVQPCSASNYCSEPVFMYRQKHRALLPAPPPPPN
# Tests used:
# Experiment in all cases: glycan array binding signal (z-score within array); higher = stronger binding
# Details in all cases: glycan notation: IUPAC condensed, linker removed
# [1] = target: Fuc(a1-2)Gal(b1-4)[Fuc(a1-3)]GlcNAc(b1-2)Man(a1-3)[Fuc(a1-2)Gal(b1-4)[Fuc(a1-3)]GlcNAc(b1-2)Man(a1-6)]Man(b1-4)GlcNAc(b1-4)[Fuc(a1-6)]GlcNAc
# Procedure, shortened: (§1)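 The Consortium for Functional Glycomics database supplied 3228 glycan arrays, of which those lacking an available protein sequence were dropped. The binding signal, a within-array Z-score, was averaged across arrays of the same protein sequence and across linkers. Negative scores can be read as non-binding.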
# [2] = target: Fuc(a1-2)Gal(b1-4)[Fuc(a1-3)]GlcNAc(b1-2)[Fuc(a1-2)Gal(b1-4)[Fuc(a1-3)]GlcNAc(b1-4)]Man(a1-3)[Fuc(a1-2)Gal(b1-4)[Fuc(a1-3)]GlcNAc(b1-2)Man(a1-6)]Man(b1-4)GlcNAc(b1-4)GlcNAc
# Procedure, shortened: as §1
# [3] = target: Fuc(a1-2)Gal(b1-4)[Fuc(a1-3)]GlcNAc(b1-3)Gal(b1-4)[Fuc(a1-3)]GlcNAc
# Procedure, shortened: as §1
# [4] = target: Fuc(a1-2)Gal(b1-4)[Fuc(a1-3)]GlcNAc(b1-3)Gal(b1-4)[Fuc(a1-3)]GlcNAc(b1-3)Gal(b1-4)[Fuc(a1-3)]GlcNAc
# Procedure, shortened: as §1
# [5] = target: Fuc(a1-2)Gal(b1-4)[Fuc(a1-3)]GlcNAc(b1-3)GalNAc
# Procedure, shortened: as §1
# [6] = target: Fuc(a1-2)Gal(b1-4)[Fuc(a1-3)]GlcNAc(b1-3)[Neu5Ac(a2-6)Gal(b1-4)GlcNAc(b1-6)]Gal(b1-4)Glc
# Procedure, shortened: as §1
# [7] = target: Fuc(a1-2)Gal3S(b1-4)GlcNAc
# Procedure, shortened: as §1
# [8] = target: Fuc(a1-2)Gal6S(b1-3)GlcNAc
# Procedure, shortened: as §1
# [9] = target: Fuc(a1-2)Gal6S(b1-3)GlcNAc6S
# Procedure, shortened: as §1
# Fuc(a1-2)Gal6S(b1-4)Glc = target: Fuc(a1-2)Gal6S(b1-4)Glc
# Procedure, shortened: as §1
# [10] = target: Fuc(a1-2)Gal6S(b1-4)Glc6S
# Procedure, shortened: as §1
# Fuc(a1-2)[Gal(a1-3)]Gal = target: Fuc(a1-2)[Gal(a1-3)]Gal
# Procedure, shortened: as §1
# [11] = target: Fuc(a1-2)[Gal(a1-3)]Gal(b1-3)GalNAc
# Procedure, shortened: as §1
# [12] = target: Fuc(a1-2)[Gal(a1-3)]Gal(b1-3)GalNAc(b1-3)Gal(a1-4)Gal(b1-4)Glc
# Procedure, shortened: as §1
# [13] = target: Fuc(a1-2)[Gal(a1-3)]Gal(b1-3)GlcNAc
# Procedure, shortened: as §1
# [14] = target: Fuc(a1-2)[Gal(a1-3)]Gal(b1-3)GlcNAc(b1-2)Man(a1-3)[Fuc(a1-2)[Gal(a1-3)]Gal(b1-3)GlcNAc(b1-2)Man(a1-6)]Man(b1-4)GlcNAc(b1-4)GlcNAc
# Procedure, shortened: as §1
# [15] = target: Fuc(a1-2)[Gal(a1-3)]Gal(b1-3)GlcNAc(b1-2)Man(a1-3)[Fuc(a1-2)[Gal(a1-3)]Gal(b1-3)GlcNAc(b1-2)Man(a1-6)]Man(b1-4)GlcNAc(b1-4)[Fuc(a1-6)]GlcNAc
# Procedure, shortened: as §1
# [16] = target: Fuc(a1-2)[Gal(a1-3)]Gal(b1-3)GlcNAc(b1-3)GalNAc
# Procedure, shortened: as §1
# [17] = target: Fuc(a1-2)[Gal(a1-3)]Gal(b1-3)GlcNAc(b1-6)GalNAc
# Procedure, shortened: as §1
# [18] = target: Fuc(a1-2)[Gal(a1-3)]Gal(b1-4)Glc
# Procedure, shortened: as §1
# [19] = target: Fuc(a1-2)[Gal(a1-3)]Gal(b1-4)GlcNAc
# Procedure, shortened: as §1
# [20] = target: Fuc(a1-2)[Gal(a1-3)]Gal(b1-4)GlcNAc(b1-2)Man
# Procedure, shortened: as §1
# [21] = target: Fuc(a1-2)[Gal(a1-3)]Gal(b1-4)GlcNAc(b1-2)Man(a1-3)[Fuc(a1-2)[Gal(a1-3)]Gal(b1-4)GlcNAc(b1-2)Man(a1-6)]Man(b1-4)GlcNAc(b1-4)GlcNAc
# Procedure, shortened: as §1
# [22] = target: Fuc(a1-2)[Gal(a1-3)]Gal(b1-4)GlcNAc(b1-2)Man(a1-3)[Fuc(a1-2)[Gal(a1-3)]Gal(b1-4)GlcNAc(b1-2)Man(a1-6)]Man(b1-4)GlcNAc(b1-4)[Fuc(a1-6)]GlcNAc
# Procedure, shortened: as §1
# [23] = target: Fuc(a1-2)[Gal(a1-3)]Gal(b1-4)GlcNAc(b1-3)GalNAc
# Procedure, shortened: as §1
# [24] = target: Fuc(a1-2)[Gal(a1-3)]Gal(b1-4)GlcNAc(b1-3)[Fuc(a1-2)[Gal(a1-3)]Gal(b1-4)GlcNAc(b1-6)]GalNAc
# Procedure, shortened: as §1
# [25] = target: Fuc(a1-2)[Gal(a1-3)]Gal(b1-4)GlcNAc(b1-6)GalNAc
# Procedure, shortened: as §1
# [26] = target: Fuc(a1-2)[Gal(a1-3)]Gal(b1-4)[Fuc(a1-3)]Glc
# Procedure, shortened: as §1
# [27] = target: Fuc(a1-2)[Gal(a1-3)]Gal(b1-4)[Fuc(a1-3)]GlcNAc
# Procedure, shortened: as §1
# [28] = target: Fuc(a1-2)[Gal(a1-3)]Gal(b1-4)[Fuc(a1-3)]GlcNAc(b1-3)GalNAc
# Procedure, shortened: as §1
# [29] = target: Fuc(a1-2)[Gal(a1-4)]Gal(b1-4)GlcNAc
# Procedure, shortened: as §1
# [30] = target: Fuc(a1-2)[GalNAc(a1-3)]Gal
# Procedure, shortened: as §1
# [31] = target: Fuc(a1-2)[GalNAc(a1-3)]Gal(b1-3)GalNAc(a1-3)[Fuc(a1-2)]Gal(b1-4)GlcNAc
# Procedure, shortened: as §1
# [32] = target: Fuc(a1-2)[GalNAc(a1-3)]Gal(b1-3)GalNAc(b1-3)Gal(a1-4)Gal(b1-4)Glc
# Procedure, shortened: as §1
# [33] = target: Fuc(a1-2)[GalNAc(a1-3)]Gal(b1-3)GlcNAc
# Procedure, shortened: as §1
# [34] = target: Fuc(a1-2)[GalNAc(a1-3)]Gal(b1-3)GlcNAc(b1-2)Man(a1-3)[Fuc(a1-2)[GalNAc(a1-3)]Gal(b1-3)GlcNAc(b1-2)Man(a1-6)]Man(b1-4)GlcNAc(b1-4)GlcNAc
# Procedure, shortened: as §1
# [35] = target: Fuc(a1-2)[GalNAc(a1-3)]Gal(b1-3)GlcNAc(b1-2)Man(a1-3)[Fuc(a1-2)[GalNAc(a1-3)]Gal(b1-3)GlcNAc(b1-2)Man(a1-6)]Man(b1-4)GlcNAc(b1-4)[Fuc(a1-6)]GlcNAc
# Procedure, shortened: as §1
# [36] = target: Fuc(a1-2)[GalNAc(a1-3)]Gal(b1-3)GlcNAc(b1-3)GalNAc
# Procedure, shortened: as §1
binder,measurement,setting,value
B1,glycan array binding signal (z-score),[1],0.449
same,glycan array binding signal (z-score),[2],-0.27
same,glycan array binding signal (z-score),[3],0.013
same,glycan array binding signal (z-score),[4],-0.334
same,glycan array binding signal (z-score),[5],0.056
same,glycan array binding signal (z-score),[6],-0.57
same,glycan array binding signal (z-score),[7],-0.06
same,glycan array binding signal (z-score),[8],-0.672
same,glycan array binding signal (z-score),[9],0.309
same,glycan array binding signal (z-score),Fuc(a1-2)Gal6S(b1-4)Glc,0.006
same,glycan array binding signal (z-score),[10],0.724
same,glycan array binding signal (z-score),Fuc(a1-2)[Gal(a1-3)]Gal,0.515
same,glycan array binding signal (z-score),[11],-0.176
same,glycan array binding signal (z-score),[12],-0.188
same,glycan array binding signal (z-score),[13],-0.198
same,glycan array binding signal (z-score),[14],-0.412
same,glycan array binding signal (z-score),[15],-0.485
same,glycan array binding signal (z-score),[16],-0.06
same,glycan array binding signal (z-score),[17],-0.471
same,glycan array binding signal (z-score),[18],0.185
same,glycan array binding signal (z-score),[19],-0.525
same,glycan array binding signal (z-score),[20],-0.401
same,glycan array binding signal (z-score),[21],0.031
same,glycan array binding signal (z-score),[22],0.317
same,glycan array binding signal (z-score),[23],-0.647
same,glycan array binding signal (z-score),[24],2.8
same,glycan array binding signal (z-score),[25],-0.539
same,glycan array binding signal (z-score),[26],-0.734
same,glycan array binding signal (z-score),[27],-0.339
same,glycan array binding signal (z-score),[28],0.08
same,glycan array binding signal (z-score),[29],0.263
same,glycan array binding signal (z-score),[30],-0.379
same,glycan array binding signal (z-score),[31],-0.489
same,glycan array binding signal (z-score),[32],0.014
same,glycan array binding signal (z-score),[33],-0.302
same,glycan array binding signal (z-score),[34],-0.509
same,glycan array binding signal (z-score),[35],-0.547
same,glycan array binding signal (z-score),[36],0.071
